Assay results reported in PubChem BioAssay AID1347165 (National Center for Advancing Translational Sciences (NCATS), 2019).
Out of some 220,000 compounds screened, about 5,700 (2.6%) were called active. This list was built around the results that the source calls inconclusive (neither active nor inactive); the mix of calls is not that of the screen. Calls come from the whole dose curve; as a rule, active = well fitted inhibition curve with a large enough effect; inconclusive = small, poorly fitted or top-dose-only effect; inactive = no such curve, though single readings can be large or run the other way. Potencies of inconclusive entries are doubtful fits and often do not repeat.
Note: nearly all actives have a fitted effect of over 70% in size.
Potency is the fitted concentration of half-maximal effect; tags give direction and shape of the fitted curve.
Throughout, for activity change, negative = inhibition: 0% is about no effect.

What follows are compounds tested against Lysine-specific demethylase 5B (Homo sapiens) (UniProt Q9UGL1) (assay: Primary screen for KDM5B Histone Demethylases FDH-coupled qHTS). Settings: FDH-coupled NADH fluorescence (FDH is formaldehyde dehydrogenase); activity change, negative = inhibition: at 57.7 µM (top of the series) unless noted.
UniProt Q9UGL1, sequence (Q9UGL1 whole entry, looked up): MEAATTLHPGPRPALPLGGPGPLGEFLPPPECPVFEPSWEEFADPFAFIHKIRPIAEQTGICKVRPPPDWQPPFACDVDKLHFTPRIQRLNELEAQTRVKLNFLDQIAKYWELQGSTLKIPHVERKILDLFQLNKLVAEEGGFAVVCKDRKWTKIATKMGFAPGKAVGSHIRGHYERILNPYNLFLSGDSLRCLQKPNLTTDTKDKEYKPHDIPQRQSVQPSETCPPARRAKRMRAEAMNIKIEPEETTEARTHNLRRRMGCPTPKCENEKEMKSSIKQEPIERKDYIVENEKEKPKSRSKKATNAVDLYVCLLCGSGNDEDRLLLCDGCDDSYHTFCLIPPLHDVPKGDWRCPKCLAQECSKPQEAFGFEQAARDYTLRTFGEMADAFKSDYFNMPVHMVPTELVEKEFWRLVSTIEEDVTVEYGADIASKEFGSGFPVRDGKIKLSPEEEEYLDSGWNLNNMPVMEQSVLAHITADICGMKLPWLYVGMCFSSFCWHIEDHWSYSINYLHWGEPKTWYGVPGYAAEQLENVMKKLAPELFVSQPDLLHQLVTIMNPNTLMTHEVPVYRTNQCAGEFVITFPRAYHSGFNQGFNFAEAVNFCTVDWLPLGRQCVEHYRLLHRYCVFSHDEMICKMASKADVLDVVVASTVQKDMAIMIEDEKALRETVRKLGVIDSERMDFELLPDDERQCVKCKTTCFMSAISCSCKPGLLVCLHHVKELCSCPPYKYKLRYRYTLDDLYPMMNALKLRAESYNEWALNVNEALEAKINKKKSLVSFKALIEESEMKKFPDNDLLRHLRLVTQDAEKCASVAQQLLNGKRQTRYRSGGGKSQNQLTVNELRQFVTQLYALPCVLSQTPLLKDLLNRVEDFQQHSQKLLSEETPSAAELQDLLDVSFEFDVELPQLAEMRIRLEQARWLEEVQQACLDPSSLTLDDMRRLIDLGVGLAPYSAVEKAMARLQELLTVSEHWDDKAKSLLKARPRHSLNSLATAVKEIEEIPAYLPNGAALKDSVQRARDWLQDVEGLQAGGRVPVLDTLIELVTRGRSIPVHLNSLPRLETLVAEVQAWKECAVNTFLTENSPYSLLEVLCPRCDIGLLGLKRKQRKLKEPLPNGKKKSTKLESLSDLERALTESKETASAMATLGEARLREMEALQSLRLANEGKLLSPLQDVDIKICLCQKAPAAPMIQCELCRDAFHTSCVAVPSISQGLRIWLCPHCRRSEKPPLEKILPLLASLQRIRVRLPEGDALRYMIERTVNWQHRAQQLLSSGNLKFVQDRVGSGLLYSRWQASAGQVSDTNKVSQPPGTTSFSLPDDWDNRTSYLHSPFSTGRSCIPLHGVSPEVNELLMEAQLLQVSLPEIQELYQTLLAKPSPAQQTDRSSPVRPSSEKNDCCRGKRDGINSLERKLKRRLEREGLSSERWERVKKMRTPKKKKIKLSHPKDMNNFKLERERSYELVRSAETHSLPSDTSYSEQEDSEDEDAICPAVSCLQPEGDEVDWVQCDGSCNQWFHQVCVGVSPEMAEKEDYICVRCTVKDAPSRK
Procedure, shortened: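 KDM5BΔAP (200 nM final) in 50 mM HEPES pH 7.5, 0.01% Tween-20 was preincubated 10 min at RT with compound over a concentration range. Substrate mix (H3K4me3 12.5 µM, α-KG 25 µM, Fe²⁺, ascorbate, NAD⁺, FDH) was added, and NADH fluorescence change over 30 min gave dose-response curves.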
O=C(NCc1ccc(F)cc1)C1=NOC2CN(C(=O)C3CC3)CC12 (centres undefined) was tested, and the “activity change, negative = inhibition” value was inactive: 34.8% [at 149 µM].
With Cc1cc(C)cc(C(=O)Nc2c(C(=O)Nc3ccccc3F)oc3ccccc23)c1 the Potency was inconclusive: 8.91 µM [inhibitor, partial curve, poor fit].
In the case of CC(=O)N1CCc2[nH]cnc2C12CCN(Cc1nccn1C)CC2, the Potency is reported as inconclusive: 17.8 µM [inhibitor, partial curve, poor fit].
With CC(C)NC(=O)NC(=O)C(C)Sc1cccc2cccnc12 (centres undefined) the Potency was inconclusive: 39.8 µM [inhibitor, single point].
With COc1ccc(C(=O)N2CCCN(c3nnc4ccc(Cl)cn34)CC2)cn1 the Potency was active: 22.4 µM.
Cc1nc(CN2Cc3nc(-c4ccc5c(c4)OCO5)ccc3OCC2=O)cs1 was tested, and the Potency was inconclusive: 28.2 µM [inhibitor, partial curve, poor fit].
With CC(C)c1cc(C(=O)N[C@@H]2COCC[C@@H]2Oc2cccc(F)c2)nc(N)n1 the Potency was active: 28.2 µM.
In the case of CCNC(=O)Cn1nc(C)c2c(C(=O)OC)cc(C3CC3)nc21, the Potency is reported as inconclusive: 11.2 µM [inhibitor, partial curve, poor fit].
With COP(=O)(OC)c1nc(-c2ccco2)oc1NCc1ccc(C)cc1 the Potency was inconclusive: 28.2 µM [inhibitor, partial curve, poor fit].
With CC(C)C[C@@H]1N[C@H](C(=O)NCC2CC2)Cc2cn(Cc3cccnc3)c3cccc1c23 the Potency was inconclusive: 25.1 µM [inhibitor, partial curve, poor fit].
In the case of N#C/C(=C\c1ccc(O)c(I)c1)c1nc2ccccc2[nH]1, the “activity change, negative = inhibition” value is reported as inactive: -9.95%.
Cc1cnc(NC(=O)CCNC(=O)c2ccsc2)s1 was tested, and the “activity change, negative = inhibition” value was inactive: 18.8%.
For CCNC(=O)c1cc(NC(=O)C(C)C)cc2nc(C)ccc12, the Potency was active: 25.1 µM.
In the case of COc1cc(NC(=O)c2ncoc2-c2cccc(Cl)c2)cc(OC)c1, the Potency is reported as inconclusive: 39.8 µM [inhibitor, partial curve, poor fit].
CC(=O)c1cc(-c2ccccc2)n(CCC(=O)Nc2ccc(C(C)C)cc2)c1C was tested, and the Potency was inconclusive: 22.4 µM [inhibitor, partial curve, poor fit].
With CCc1nc(C)cc2c1sc1ccccc12 the Potency was inconclusive: 39.8 µM [inhibitor, single point].
With CCC(=O)N1CCC2(CC1)CC(N1CCN(c3ccccn3)CC1)CCO2 (centres undefined) the “activity change, negative = inhibition” value was inactive: -8.82%.
For Fc1ccc(Nc2nc(NCC3CCCO3)nc3c2cnn3-c2ccccc2)cc1 (centres undefined), the Potency was inconclusive: 31.6 µM [inhibitor, single point].
N#CC1(c2ccc(NC(=O)Cc3ccc(Cl)cc3)cc2)CCCC1 was tested, and the “activity change, negative = inhibition” value was inactive: 15.8%.
